Among all 48,000 compounds or so, about 120 (0.25%) were called active. Another 4% or so got no clear call; they are omitted. Calls come from the whole dose curve; as a rule, active = well fitted activation curve with a large enough effect; inconclusive = small, poorly fitted or top-dose-only effect, or another doubt; inactive = no such curve, though single readings can be large or run the other way. This is one part of the list.
test: Primary qHTS for Identification of Small Molecule Activators of Huntingtin-Antisense Promoter Activity; settings: HEK293 HTT-AS promoter firefly luciferase reporter, 24 h; series mostly up to 57.5 µM; activity change, positive = activation: at the top concentration; note: nearly all actives have a fitted effect of over 55% in size
Outline: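 Luminescence was read after Dual-Glo reagent and a 10 min room-temperature incubation. Values were normalized to vehicle (0% activity) and zero RLU (-100% activity). Reporter HEK293 cells had been exposed to compounds (up to 57.5 uM final) for 24 h.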
Potency is the fitted concentration of half-maximal effect.

Compound | activity change, positive = activation | Potency
CCOCCCNC(=O)N1CCN(S(=O)(=O)c2ccc3c(ccn3C)c2)CC1 | inactive: -7.36% | 
COc1ccc(-c2noc(-c3ccc(N4CCOCC4)c([N+](=O)[O-])c3)n2)cc1OC | inactive: -7.39% | 
COc1ccccc1N1CCN(CCC(=O)Nc2cccc(F)c2)CC1 | inactive: 0% | 
Cn1c(=O)c2c(SCC(=O)NCC3CCCO3)nc(-c3ccccc3F)nc2n(C)c1=O (stereo not given) | inactive: -3.97% | 
CCOC(=O)c1ccc(NS(=O)(=O)c2cc3c(cc2C)n(C)c(=O)c(=O)n3C)cc1 | inactive: -16% | 
CCOc1ccc(NC(=O)CSc2oc(-c3cccs3)nc2S(=O)(=O)c2ccc(Cl)cc2)cc1 | inactive: 3.87% | 
O=C(Cn1c(=O)n(-c2ccccc2)c(=O)c2ccc(C(=O)NCc3ccc4c(c3)OCO4)cc21)Nc1ccc(Br)cc1F | inactive: -17.6% | 
CCOc1ccc(CNC(=O)c2cnc(SC)nc2CC)cc1 | inactive: -8.64% | 
COc1ccc(CNc2nc(-c3ccc(OC)c(OC)c3)cc(C(F)(F)F)n2)cc1 | inactive: -24% | 
CCCCSCCCNC(=O)CN1C(=O)COc2ccc(S(=O)(=O)N3CCCC3)cc21 | inactive: -14% | 
O=C(c1ccc2c(c1)N(Cc1cccc(F)c1)C(=O)c1ccccc1S2)N1CCCC1 | inactive: -25% | 
CC(C)c1cnc2c(c1SCC(=O)NCc1ccccc1Cl)c(=O)n(C)c(=O)n2C | inactive: 1.75% | 
Cc1cccc2c1-c1sc(C(=O)N(C)c3cccc(Cl)c3)cc1CO2 | inactive: 9.88% | 
COc1ccc(NC(=O)NC2COc3ccccc3C2)cc1Cl (stereo not given) | inactive: 14.9% | 
Cc1ccc(CN2C(=O)c3ccccc3CC2(C)C(=O)NC2CCCCC2)cc1 (stereo not given) | inactive: -11.2% | 
Cc1cccc(N2CCN(C(=O)c3noc4c3COc3ccc(C)cc3-4)CC2C)c1 (stereo not given) | inactive: -10.7% | 
CCOc1ccccc1C(=O)NC1(C(F)(F)F)C(=O)Nc2c1c(=O)[nH]c(=O)n2-c1ccc(F)cc1 (stereo not given) | inactive: 6.7% | 
CSc1ccc(CCNC(=O)CCc2c(C)nc3ncnn3c2C)cc1 | inactive: -8.35% | 
COc1ccccc1N1CCN(CCN(C(=O)C2CCCCC2)c2ccccn2)CC1 | inactive: -15.1% | 
CN1C(=O)CC(c2ccccc2)C1=O (stereo not given) | inactive: -4.43% | 
Cn1nnnc1SCCNCc1cc(Br)ccc1OCc1ccccc1Cl | inactive: -51.7% | 
OC[C@H]1O[C@@H](Oc2cc(O)cc(C=Cc3ccc(O)cc3)c2)[C@H](O)[C@@H](O)[C@H]1O | inactive: 4.95% | 
Cc1ccc(C(=O)Nc2cccc3cccnc23)cc1Cl |  | active: 8.91 µM
COc1cccc(OC)c1C(=O)NCCc1csc(-c2ccc(Cl)cc2)n1 | inactive: -21.7% | 

Compound | activity change, positive = activation | Potency
COC(=O)c1c(-c2cccs2)csc1NC(=O)COc1ccc(C)cc1 | inactive: -8.88% | 
O=C(CCn1cccn1)Nc1ccc(Br)cc1F | inactive: 15.3% | 
COc1ccc(CNC(=O)c2ccc3c(c2)N(Cc2c(F)cccc2Cl)C(=O)CS3)cc1 | inactive: -39.1% | 
Cc1nc2ccccc2n1CCc1nc2c3ccccc3nc(SCc3ccc(C#N)cc3)n2n1 | inactive: 6.08% | 
COc1cccc(NC(=O)CN(CCc2ccccc2)S(=O)(=O)c2ccc(Cl)cc2)c1 | inactive: -14.5% | 
Nc1ccn([C@@H]2O[C@H](CO)[C@@H](O)C2(F)F)c(=O)n1 | inactive: -21.6% | 
O=S(=O)(NCc1nc2cccnc2n1Cc1ccccc1Cl)c1ccc2c(c1)CCCC2 | inactive: -23.9% | 
CCOc1ccc(NS(=O)(=O)c2ccc3[nH]c4c(c3c2)CCCCC4)cc1 | inactive: 7.3% [at 11.5 µM, percent change from vehicle, -100% = no light] | 
O=C(COCc1cc(-c2ccc(F)cc2)on1)Nc1cc(F)ccc1F | inactive: 0% | 
CCOc1ccccc1NS(=O)(=O)c1ccc2c(c1)oc(=O)n2C | inactive: -14.4% | 
CCN(CC)CCCNC(=O)Cc1csc2nc(-c3ccc(Cl)cc3)cn12 | inactive: 1.89% | 
CCc1cc2c(cc3c(=O)n(CCCC(=O)NCc4cccc(Cl)c4)ncn32)s1 | inactive: -33.7% | 
Cc1cc2c(n1-c1ccc(C(=O)NCc3ccccc3Cl)cc1)CCCC2 | inactive: 16.2% | 
O=C(CCSCc1ccccc1Cl)NCc1ccc(F)cc1Cl | inactive: -7.43% | 
COc1ccccc1N1CCN(C(=O)c2c(C)oc3ncn(C)c(=O)c23)CC1 | inactive: -3.97% | 
Cc1cccc(CCNC(=O)c2cc3c(=O)n(C)c4ccccc4c3n2C)c1 | inactive: -4.97% | 
O=C(CN1C(=O)CCn2nc(-c3ccccc3)cc21)NCc1ccc(Cl)cc1 | inactive: -31.9% | 
COc1ccc(NC(=O)c2oc3ccccc3c2NC(=O)Cc2coc3c(C)c(C)ccc23)cc1 | inactive: -3.52% | 
COc1ccccc1-c1cc(C(=O)NCc2ccccc2)c2c(-c3ccc(C)cc3)[nH]nc2n1 | inactive: -37.4% | 
Fc1ccc(Cl)cc1-c1nc(Nc2ccncc2)c2nccnc2n1 | inactive: -3.57% | 
Cc1ccc(S(=O)(=O)c2nc(S(=O)(=O)c3ccccc3)sc2NCCCOC(C)C)cc1 | inactive: -1.34% | 
CCOc1ccc(NC(=O)/C(C#N)=C\c2ccc(-c3ccc(Cl)cc3)o2)cc1 | inactive: -16.7% | 
Cc1c(Cl)cccc1NC(=O)CCS(=O)(=O)c1ccc2c(c1)CC(=O)N2C | inactive: 10.8% | 
O=C(CSc1n[nH]c(-c2ccc(F)cc2)n1)NCCc1ccccc1 | inactive: -18.7% | 

Compound | activity change, positive = activation | Potency
CCN(CC)CCNC(=O)c1c2c(nc3ccccc13)C(=O)N(C1CCCCC1)C2 | inactive: 7.96% | 
Cc1ccc(S(=O)(=O)NCCc2cn3ccsc3n2)c(C)c1 | inactive: -10.7% | 
COc1cccc(NC(=O)Cn2cc(C(=O)c3ccc(C)cc3)c(=O)c3cc(OC)ccc32)c1 | inactive: -24.3% | 
Cc1ccccc1NC(=O)Cn1c(=O)n(Cc2ccc3c(c2)OCO3)c(=O)c2ccccc21 | inactive: -19.9% | 
CCOC(=O)c1c(Nc2ccc(OC)cc2)nnc(-c2ccccc2)c1-c1ccccc1 | inactive: -32.2% | 
CCOc1ccc(NC(=O)COc2ccc(S(=O)(=O)NC3CCCCC3)cc2)cc1 | inactive: -33.3% | 
CN1CCN(c2ncc3c(n2)CCN(Cc2ccc(Br)s2)C3)CC1 | inactive: -15.3% | 
COc1ccc(-c2csc(=Nc3ccccc3)n2CCO)cc1F | inactive: 21% | 
Cc1cccn2c(=O)c(C(=O)NCc3cccc(F)c3)cnc12 | inactive: 4.8% | 
CCOc1ccc(CNC(=O)Cc2ccc(NC(=O)N3CCSc4ncccc43)cc2)cc1 | inactive: -17.6% | 
Cc1cccc(-c2nc3scc(CCNS(=O)(=O)c4ccc5c(c4)OCCO5)n3n2)c1 | inactive: -25.3% | 
Cc1ccc(Cl)cc1Nc1nn2c(=O)c3ccc(C(=O)NCc4ccc(F)cc4)cc3nc2s1 | inactive: -9.93% | 
CCCOc1ccc(-c2nc(SCC(=O)c3ccc(Cl)cc3)n[nH]2)cc1 | inactive: 22.9% | 
CC(=O)c1ccc(N2CCN(C(=O)C3CCN(S(=O)(=O)c4cn(C)cn4)CC3)CC2)cc1 | inactive: -5.62% | 
Cn1c(=O)c2sccc2n2c(CCC(=O)NCc3ccc(Cl)cc3)nnc12 | inactive: -14.9% | 
CN(C)CCN(Cc1ccccc1)c1ccccn1 | inactive: 0.42% | 
CCOC(=O)N1CCc2c(sc3c2c(=O)n(-c2ccc(Cl)cc2)c(=O)n3CC(C)C)C1 | inactive: -3.7% | 
COc1ccc(Nc2c(-c3cccc(O)c3)nc3cnccn23)cc1 | inactive: -14.5% | 
CC(=O)Nc1cccc(-n2cc3c(c2-c2ccccc2Cl)c(=O)n(C)c(=O)n3C)c1 | inactive: -7.6% | 
O=C(CCn1ccc2cc(S(=O)(=O)N3CCCC3)ccc21)NCc1ccccc1Br | inactive: -2.48% | 
O=C(CN1C(=O)c2cccnc2Oc2ccc(Cl)cc21)Nc1cccc(C(F)(F)F)c1 | inactive: -32.2% | 
CC(C)Oc1ccc(C(=O)Nc2c(C(=O)Nc3cccc(F)c3)oc3ccccc23)cc1 | inactive: -2.11% | 
CCc1nc2nc(C)cc(Nc3cccc(C)c3C)n2n1 | inactive: -25.3% | 
Cc1cccc(C2CC(=O)Nc3cc4c(cc32)OCO4)c1 (stereo not given) | inactive: -42% | 

Compound | activity change, positive = activation | Potency
CCc1ccc(NC(=O)CN2C(=O)C3(SCC(=O)N3c3ccc(F)c(F)c3)c3ccccc32)cc1 (stereo not given) | inactive: -47.4% | 
Cc1cc2ccccc2n1CCNC(=O)c1ccc(Br)cc1 | inactive: -12.4% | 
COc1ccc(CNC(=O)CCc2c(C)c3cc4c(C)c(C)oc4cc3oc2=O)cc1OC | inactive: -11.2% | 
CC(C)c1ccc(OCC(=O)N(Cc2cccs2)C2CCS(=O)(=O)C2)cc1 (stereo not given) | inactive: 0.433% | 
Cc1nnc(N2CCC(C(=O)NCCC(C)C)CC2)c2nn(-c3ccc(Cl)cc3)c(C)c12 | inactive: -6.1% | 
CCOc1cc(Cl)c(S(=O)(=O)n2ccnc2)cc1Cl | inactive: 2.97% | 
CCC(C(=O)N1CCN(c2ccccc2)CC1)n1c(C)c2cnn(-c3ccccc3)c(=O)c2c1C (stereo not given) | inactive: -15.9% | 
O=C(NC1CCCC1)c1ccc2c(=O)n(Cc3ccccc3)c(SCc3cccc(F)c3)nc2c1 | inactive: -11.5% | 
CCN(CC)c1ccc(NC(=O)CCCN2C(=O)C(c3ccccc3)Oc3cccnc32)c(C)c1 (stereo not given) | inactive: -18.1% | 
COC(=O)c1ccc(NC(=O)CN2C(=O)CC(c3ccccc3)Sc3ccccc32)cc1 (stereo not given) | inactive: -6.37% | 
Cc1cc(C)n(C(C)CC(=O)Nc2ccc(C)c(N(C)C)c2)n1 (stereo not given) | inactive: -5.74% | 
C=C(C)CSc1nc(-c2ccccc2)cc(-c2ccc(OC)cc2)c1C#N | inactive: -18.2% | 
Cc1ccc(N2CC(C(=O)Nc3ccc(N(C)C)cc3)CC2=O)cc1Cl (stereo not given) | inactive: -2.05% | 
Fc1ccccc1N1CCN(c2nc3ccccc3c3nc(-c4ccccc4)nn23)CC1 | inactive: -4.1% | 
CSc1ccc(-c2nnc(NC(=O)c3ccc4c(c3)OCCO4)o2)cc1 | inactive: 2.07% | 
Cc1ccc(-c2cn3c(n2)sc2cc(C(=O)NCCCc4ccccc4)ccc23)c(C)c1 | inactive: 1.34% | 
CCCCN(CCCNC(=O)c1cc(Nc2ccc(OC)c(OC)c2)nc2ccccc12)c1ccccc1 | inactive: -13.5% | 
CC1CCCN(S(=O)(=O)c2ccc3c(c2)c(=O)nc2ccccn23)C1 (stereo not given) | inactive: 0% | 
CC(=O)O[C@@]12CO[C@@H]1C[C@H](O)[C@@]1(C)C(=O)[C@H](O)C3=C(C)[C@@H](OC(=O)[C@H](O)[C@@H](NC(=O)OC(C)(C)C)c4ccccc4)C[C@@](O)([C@@H](OC(=O)c4ccccc4)[C@H]21)C3(C)C | inactive: -34.2% | 
Cc1cc(C)c(S(=O)(=O)NCC(c2ccc(N(C)C)cc2)N2CCOCC2)c(C)c1 (stereo not given) | inactive: -18.3% | 
CCc1cccc(NC(=O)CN(C)S(=O)(=O)c2ccc3c(c2)CCCN3C(C)=O)c1 | inactive: -17% | 
CCOC(=O)c1cnc2c(C)c(Cl)ccc2c1Nc1ccc(N2CCOCC2)cc1 | inactive: 15.5% | 
CC(CCc1ccccc1)NC(=O)Cn1c(=O)nc(-c2ccccc2)c2ccccc21 (stereo not given) | inactive: 8.49% | 

— PubChem BioAssay AID1508624 (National Center for Advancing Translational Sciences (NCATS), 2021)
